From publication PMC4336329 (PLoS ONE, 2015)
Out of some 310,000 compounds screened, about 14,000 (4.5%) showed an effect of 50% or more. The effect is printed as a negative number. This is one part of the list.

biological target: human ether-à-go-go-related gene (hERG) potassium channel (human, UniProt Q12809); experiment: primary screen, population patch clamp on CHO cells stably expressing hERG
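Also: peak tail current of the secondary pulse compared with the same well before compound.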

human ether-à-go-go-related gene (hERG) potassium channel, sequence (Q12809 whole entry, looked up): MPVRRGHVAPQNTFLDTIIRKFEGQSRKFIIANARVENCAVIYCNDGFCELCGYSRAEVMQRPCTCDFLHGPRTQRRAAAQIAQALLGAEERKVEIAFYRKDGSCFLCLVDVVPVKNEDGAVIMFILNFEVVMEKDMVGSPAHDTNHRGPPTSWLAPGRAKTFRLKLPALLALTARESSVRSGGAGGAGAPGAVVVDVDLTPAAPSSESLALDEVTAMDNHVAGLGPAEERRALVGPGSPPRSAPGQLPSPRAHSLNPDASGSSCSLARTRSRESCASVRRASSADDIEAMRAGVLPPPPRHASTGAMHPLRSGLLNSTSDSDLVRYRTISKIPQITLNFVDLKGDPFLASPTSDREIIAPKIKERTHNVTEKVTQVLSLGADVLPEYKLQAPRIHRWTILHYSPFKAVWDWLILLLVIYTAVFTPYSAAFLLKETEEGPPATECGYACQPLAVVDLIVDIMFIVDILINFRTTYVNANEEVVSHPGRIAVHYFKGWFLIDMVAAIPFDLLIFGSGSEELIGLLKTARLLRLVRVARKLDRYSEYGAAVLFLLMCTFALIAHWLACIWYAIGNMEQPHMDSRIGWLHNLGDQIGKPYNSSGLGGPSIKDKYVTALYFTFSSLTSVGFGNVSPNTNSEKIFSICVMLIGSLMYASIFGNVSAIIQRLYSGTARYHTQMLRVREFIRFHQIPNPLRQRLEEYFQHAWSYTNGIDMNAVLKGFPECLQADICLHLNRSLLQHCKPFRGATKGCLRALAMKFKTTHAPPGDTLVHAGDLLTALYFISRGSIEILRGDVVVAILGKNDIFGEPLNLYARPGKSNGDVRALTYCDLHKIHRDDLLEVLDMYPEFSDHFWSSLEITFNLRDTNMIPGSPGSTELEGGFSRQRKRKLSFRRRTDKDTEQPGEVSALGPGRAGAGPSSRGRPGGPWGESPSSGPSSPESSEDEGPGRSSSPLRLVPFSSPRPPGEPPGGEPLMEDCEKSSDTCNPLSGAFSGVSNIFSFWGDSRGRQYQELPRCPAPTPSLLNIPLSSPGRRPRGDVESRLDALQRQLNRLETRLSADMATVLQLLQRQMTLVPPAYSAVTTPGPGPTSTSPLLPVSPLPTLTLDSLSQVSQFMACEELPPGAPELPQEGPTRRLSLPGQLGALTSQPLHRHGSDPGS

SMILES	hERG current change (%, negative = inhibition) at 10uM
Nc1cccnc1S(=O)(=O)c1cccc(C(F)(F)F)c1	5.59%
CCOc1ccccc1-n1c(SCC(=O)Nc2ccccc2C(=O)O)nc2ccccc2c1=O	8.39%
Cc1ccc(S(=O)(=O)NC2=NCN(Cc3cccnc3)CN2)cc1	20.3%
Cc1ccc[n+](-c2[nH]c(=O)sc2/C=N/N=C(\[O-])c2cccnc2)c1	7%
CCOC(=O)c1cc(C#N)c(N2CCOCC2)nc1-c1ccccc1	-32.7%
CCOc1ncccc1C(=O)OCc1nnc(-c2ccccc2)o1	-27.6%
COC(=O)c1ccc(NC(=O)CCS(=O)(=O)c2ccc(C)cc2)cc1	8.44%
CC(C)Sc1nc2c(c(=O)n(C)c(=O)n2C)n1C	16.1%
CCNc1nc(NCC)n2c(SCC(=O)Nc3ccccc3Cl)nnc2n1	11%
O=C(CN1C(=O)c2ccccc2S1(=O)=O)NCCSCc1c(F)cccc1Cl	-29.7%
CCc1ccc2oc(C(=O)NCc3ccncc3)c(C)c2c1	-20.3%
CC1CCCN(S(=O)(=O)c2ccc(NC(=O)c3cccc(-n4cnnn4)c3)cc2)C1 (centres unmarked)	-40.2%
Cc1[nH]n(-c2ccc([N+](=O)[O-])cc2)c(=O)c1C=NCCN1CCN(C(=O)c2ccccc2F)CC1	-71.2%
Cc1cccc(C)c1OCC(=O)N=Nc1c(O)[nH]c2ccc(Br)cc12	-5.96%
Cc1ccc(NS(=O)(=O)c2cccc(C(=O)O)c2)cc1S(=O)(=O)N1CCOCC1	-8.81%
CCOC(=O)C1=C(Nc2ccc(OC)cc2)OCC1=O	16.5%
O=C(Cc1cccs1)NC1(C(=O)NC2CCCC2)CCCCC1	-3.91%
COc1ccc(-c2c(C(C)=O)c(C)nc3sc4c(=O)n(-c5ccc(C)cc5)nnc4c23)cc1	5.77%
Cc1ccc2c(c1)N(CC(=O)OCC(=O)NCc1ccccc1)C(=O)CO2	-4.08%
CC(C)(C)c1ccc(C(=O)Nc2ccccc2Cl)cc1	31.2%
CS(=O)(=O)N1CCN(C(=O)c2c(F)cccc2F)CC1	0.936%
CN(C)CCn1c2c(c(SCC(=O)NCc3ccccc3)nc1=O)CCC2	-14.9%

SMILES	hERG current change (%, negative = inhibition) at 10uM
Cc1nc2cc(NC(=O)N3c4ccccc4CC3C)ccc2n1C (centres unmarked)	-8.73%
O=C(Nc1ccccc1)Nc1scc2c1c(=O)oc1ccccc12	2.68%
N/C(=N\OC(=O)c1ccc(OCC(F)(F)F)nc1)c1ccc(Cl)cc1	19.5%
CN(C)S(=O)(=O)NCC1CCCN(Cc2cc3ccccc3s2)C1 (centres unmarked)	-6.37%
COc1ccccc1CNC(=O)CCC(=O)Nc1nnc(C(C)C)s1	3.13%
Cc1nc(-c2ccccc2)sc1-c1nc(-c2ccccc2)ncc1S(=O)(=O)c1ccccc1	6.59%
CC1CCN(C(=O)/C(=C/c2ccccc2Cl)c2ccccc2)CC1	-11.8%
COc1ccc(C)cc1NC(=O)CCN1CCN(c2ccccc2F)CC1.Cl	-19.9%
Cc1c(Cc2ccc3c(c2)OCO3)sc(NC(=O)c2ccc3ccccc3c2)c1C(N)=O	-4.06%
COc1ccc(C(=O)NC(=S)Nc2ccc3c4c(cccc24)CC3)cc1OC	22.3%
CCn1ncc(-c2ccnc3cc(C(=O)O)nn23)c1C	12.6%
Cc1[nH]c2ccc(-c3n[nH]c(=S)n3-c3ccccc3)cc2c1C	-3.58%
Cc1cc(Cl)ccc1NC(=S)N(CCCN1CCOCC1)Cc1cccs1	-32.2%
CCC(=O)Oc1ccc(-c2cnc3ccccc3n2)cc1	13.5%
CCN(CC)C(=O)c1c(-c2ccccc2)oc2ccc(O)cc12	9.39%
O=C1C2C3C=CC([C@@H]2C(=O)N1C1CCCCC1)[C@H]1C(=O)N(C2CCCCC2)C(=O)C31 (some centres unmarked)	0.712%
Cc1cc(NC(=O)Cn2nc(-c3ccccc3F)ccc2=O)ccc1-n1cnnn1	-8.95%
Cc1ccc(C(=O)NC(C)(COc2nonc2C)COc2nonc2C)cc1	-40%
CCC(c1nnnn1CCOC)N1CCN(Cc2ccccc2)CC1.Cl (centres unmarked)	-2.59%
COc1cc(S(=O)(=O)NCC2CCCO2)ccc1Br (centres unmarked)	-15.8%
N#CCCCSc1nnc(Cc2ccc3c(c2)OCO3)o1	6.99%
CCCCOc1ccc(C(=O)NCCc2ccccc2)cc1	5.09%
